According to the supplement of paper PMC4604168 (melanoma cell lines):
The other results are listed elsewhere or left out. Many values rest on one well or one pass, so single values are uncertain.

Tests used:
Assay in all cases: cell count relative to DMSO control; melanoma cells; higher = more viable cells
Details in all cases: library dose: standard library concentration; 72 h
G361 = system: G361
IPC-298 = system: IPC-298
IST-MEL1 = system: IST-MEL1
LOXIMVI = system: LOXIMVI
MEL-HO = system: MEL-HO
MeWo = system: MeWo
RPMI7951 = system: RPMI7951
RVH-421 = system: RVH-421
SkMel28 = system: SkMel28
SkMel2 = system: SkMel2
SkMel30 = system: SkMel30
SkMel5 = system: SkMel5
UACC257 = system: UACC257
UACC62 = system: UACC62
WM115 = system: WM115
WM1716 = system: WM1716
WM3526 = system: WM3526
WM1745 = system: WM1745
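Further: cells treated in 1,536-well plates, then fixed and DAPI-stained, with nuclei counted from automated high-throughput microscope images.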

Structure (SMILES) | cell count (G361) | cell count (IPC-298) | cell count (IST-MEL1) | cell count (LOXIMVI) | cell count (MEL-HO) | cell count (MeWo) | cell count (RPMI7951) | cell count (RVH-421) | cell count (SkMel28) | cell count (SkMel2) | cell count (SkMel30) | cell count (SkMel5) | cell count (UACC257) | cell count (UACC62) | cell count (WM115) | cell count (WM1716) | cell count (WM3526) | cell count (WM1745)
O=C(Nc1cc(C(F)(F)F)cc(C(F)(F)F)c1)c1cc(Cl)ccc1O + Cc1cc([N+](=O)[O-])ccc1NS(=O)(=O)c1cc(Cl)ccc1Cl [FH535] (first compound 0.08 µM, partner dose 5 µM) | 48.5% | 57.4% | 63.6% | 90.3% | 55.5% | 93.3% | 81.3% | 58.4% | 68% | 93.8% | 98.3% | 74% | 67.6% | 124% | 83.9% | 85.5% | 93% | –
O=C(O)c1ccc2c(c1)nc(Nc1cccc(Cl)c1)c1ccncc12 + Cn1cc(/C=C2\C(=O)Nc3cccnc32)c2ccccc21 [GW441756] (first compound 2 µM, partner dose 2 µM) | 69.7% | 79.3% | 93.2% | 71.3% | 67.8% | 93.6% | 73.4% | 73.8% | 69.3% | – | 87.4% | 57.8% | 73.2% | 70.6% | 88.8% | 98.9% | 78.2% | –
O=C(Nc1cc(C(F)(F)F)cc(C(F)(F)F)c1)c1cc(Cl)ccc1O + C[C@]1(c2nc3c(C(N)=O)cccc3[nH]2)CCCN1 [Veliparib] (first compound 0.08 µM, partner dose 7 µM) | 75.6% | 88.3% | 102% | 68% | 70.6% | 94.1% | 93.2% | 97.2% | 78.8% | 86.9% | 88.9% | 88.9% | 101% | 62.9% | 78.8% | 96.1% | 79.3% | 84.9%
O=C(Nc1cc(C(F)(F)F)cc(C(F)(F)F)c1)c1cc(Cl)ccc1O + Nc1ccn([C@@H]2O[C@H](CO)[C@@H](O)C2(F)F)c(=O)n1 [gemcitabine] (first compound 0.08 µM, partner dose 0.002 µM) | 53.7% | 42% | 40.5% | 57.7% | 50.2% | 43.5% | 63.7% | 53.4% | 114% | 90% | 100% | 107% | 100% | 95.7% | 71.5% | 66.2% | 100% | 52%
Cc1cc(N2CCOCC2)cc2[nH]c(-c3c(NC[C@@H](O)c4cccc(Cl)c4)cc[nH]c3=O)nc12 + Oc1nc(-c2ccc(C(F)(F)F)cc2)nc2c1CSCC2 [XAV939] (first compound 1 µM, partner dose 10 µM) | 78.8% | 76.3% | 96.6% | 79.9% | 80.8% | 74% | 78.6% | 95.6% | 63.6% | 77.5% | 83.6% | 81% | 72.1% | 103% | 85.4% | 78.3% | 80.7% | 44.5%
O=C(Nc1cc(C(F)(F)F)cc(C(F)(F)F)c1)c1cc(Cl)ccc1O + Nc1ncn([C@H]2C[C@H](O)[C@@H](CO)O2)c(=O)n1 [decitabine] (first compound 0.08 µM, partner dose 0.5 µM) | 91.3% | 53.9% | 68.7% | 83% | 65.5% | 73% | 86% | 79.4% | 121% | 86.2% | 103% | 80.2% | 119% | 76.6% | 81.5% | 89.9% | 93.8% | 77%
Cn1nnc2c(C(N)=O)ncn2c1=O [temozolomide] + Cc1cc([N+](=O)[O-])ccc1NS(=O)(=O)c1cc(Cl)ccc1Cl [FH535] (first compound 10 µM, partner dose 5 µM) | 50.5% | 48% | 63.5% | 84.5% | 61% | 89.6% | 113% | 62.4% | 32.3% | 92.3% | 76.2% | 89.5% | 67% | 78.9% | 78% | 59.4% | 78.5% | 66.3%
O=C(O)[C@@H]1[O][Sb](=[O])([O][Sb]2(=[O])[O][C@H]([C@H](O)CO)[C@H](O)[C@H](C(=O)O)[O]2)[O][C@H]([C@H](O)CO)[C@@H]1O (stereo partly drawn) [stibogluconate] + COc1cc2ncnc(Nc3ccc(Oc4ccccc4)cc3)c2cc1OC [SrcI1] (first compound 10 µM, partner dose 10 µM) | 47.6% | 80.8% | 76.3% | 69.2% | 92.7% | 78.9% | 50.1% | 106% | 113% | 103% | 91.8% | 60.4% | 85.5% | 46.3% | 72.1% | 66.7% | 60.8% | –
O=C(O)c1ccc2c(c1)nc(Nc1cccc(Cl)c1)c1ccncc12 + C#Cc1cccc(Nc2ncnc3cc(OCCOC)c(OCCOC)cc23)c1 [erlotinib] (first compound 2 µM, partner dose 4 µM) | 37.8% | 42.9% | 70.3% | 51.3% | 45.7% | 62.4% | 54.8% | 65.1% | 41.6% | 61.5% | 56.3% | 45.2% | 80.2% | 32.1% | 64.3% | 81% | 43.1% | 37.1%
